# Experimental data as given in PubChem BioAssay AID485344 (National Center for Advancing Translational Sciences (NCATS), 2010).
# About 6,900 (2%) of roughly 340,000 compounds were called active. No stated cut-off is given here; in the data, active means inhibition above about 30%; inactive means below that, where a call was filed. Only a part is listed here, and it is no random draw. The source gives no active or inactive call for entries shown without one.
# Target: D(2) dopamine receptor (Homo sapiens) (UniProt P14416)
# Sequence of UniProt P14416 (P14416 whole entry, looked up): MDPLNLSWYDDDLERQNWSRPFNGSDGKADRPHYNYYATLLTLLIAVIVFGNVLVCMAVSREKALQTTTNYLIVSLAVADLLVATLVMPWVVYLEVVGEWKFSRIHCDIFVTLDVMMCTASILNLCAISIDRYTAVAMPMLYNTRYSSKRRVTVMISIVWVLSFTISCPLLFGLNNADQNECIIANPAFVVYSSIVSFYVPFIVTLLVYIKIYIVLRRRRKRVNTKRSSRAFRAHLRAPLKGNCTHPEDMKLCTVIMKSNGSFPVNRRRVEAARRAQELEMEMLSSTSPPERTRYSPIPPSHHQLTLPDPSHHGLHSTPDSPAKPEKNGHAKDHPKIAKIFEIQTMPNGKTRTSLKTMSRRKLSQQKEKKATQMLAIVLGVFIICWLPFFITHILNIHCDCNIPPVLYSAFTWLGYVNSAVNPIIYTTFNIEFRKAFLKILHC
# Assay: HTS Assay for Allosteric Antagonists of the Human D2 Dopamine Receptor: Primary Screen for Antagonists; further: 0% is about no effect
# Details: HEK293 TREx D2 cells, calcium flux, dopamine EC80; at 10 µM; stronger effect = higher value
# How it was run: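 Calcium mobilization kinetics were recorded at 1 s intervals in tetracycline-induced HEK293 T-REx D2 cells, first for 180 s after compound addition and then 180 s after EC80 dopamine.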
row,SMILES,inhibition
1,Cc1ccc(-n2nc3c(=O)n(C(C)C(=O)NCc4ccc(OC(C)C)cc4)nc(C)c3c2C)cc1 (stereo unspecified),-0.872%
2,CC(=O)c1ccc(NC(=O)CSC2=Nc3ccccc3N=C(c3ccc(F)cc3)C2)cc1,7.57%
3,CC(C)Cn1cc(NC(=O)N2CCN(c3ccc(F)cc3)CC2)c2ccccc2c1=O,0.512%
4,COc1cc(OC)cc(-c2nc3nc(C)c(CCC(=O)Nc4cc(C)cc(C)c4)c(C)n3n2)c1,-6.68%
5,CCCCn1c(=O)n(CC2CCC(C(=O)NCCCOC)CC2)c(=O)c2sccc21 (stereo unspecified),4.96%
6,O=C(NCc1ccc(Cl)cc1)C1CCN(S(=O)(=O)c2cccc3nonc23)CC1,15.6%
7,CCC(Cc1ccccc1)NC(=O)Cn1nc(C)n2c(cc3occc32)c1=O (stereo unspecified),-1.25%
8,CCOc1ccc2nc(NC(=O)c3nc(SCc4ccccc4F)ncc3Cl)sc2c1,4.43%
9,Cc1cc(C)cc(-n2c(SCC(=O)Nc3ccccc3)nc3c(oc4ccccc43)c2=O)c1,-1.27%
10,CC(CCc1ccccc1)NCc1ccc(Cl)cc1Cl (stereo unspecified),active: 45%
11,CCC(C)NCCCOc1cc(Cl)ccc1Cl (stereo unspecified),active: 80%
12,Cc1ccc(NC(=O)C2CCCN(c3ncnc4c3nc3n4CCCCC3)C2)c(Br)c1 (stereo unspecified),0.74%
13,CCn1c(=O)c2cc(C(=O)NCc3cc(OC)ccc3OC)sc2c2ccccc21,-19.7%
14,CCN1CCN(c2csc3ccc(Br)cc3c2=O)CC1,-13.3%
15,COc1ccc(NC(=O)C2CCCN(S(=O)(=O)c3c(C)[nH]c(=O)[nH]c3=O)C2)cc1OC (stereo unspecified),10.1%
16,CC(C)(C)c1ccc(C(=O)NCC(=O)OCc2cc(=O)n3nc(C4CC4)sc3n2)cc1,14.9%
17,COc1ccc(Cl)cc1NCc1nnc2n1CCCCC2,-5.71%
18,COc1ccc(NC(=O)c2oc3ccccc3c2NC(=O)c2cc(=O)c3cc(Cl)ccc3o2)cc1,-10.1%
19,COc1ccc(CC(C)NS(=O)(=O)c2ccc3c(c2)CCN3S(C)(=O)=O)cc1OC (stereo unspecified),-15.1%
20,COC(=O)c1c(NC(=O)c2ccc(OC)cc2OC)sc2c1CCCCC2,0.131%
21,COc1ccc2[nH]c3c(c2c1)CCN(C(=O)CCC1CCCC1)C3c1ccc(F)cc1 (stereo unspecified),6.95%

row,SMILES,inhibition
1,O=C(CSc1nccn1-c1ccc(F)cc1)Nc1nc2ccccc2s1,12.5%
2,Cc1cccc(Cn2c(-c3ccccc3)nc3ccccc32)c1,-17.1%
3,O=C(CC1N=C2c3ccccc3N=C(SCc3ccc(F)cc3)N2C1=O)NCCc1ccccc1 (stereo unspecified),-18.5%
4,Cc1ccc(-c2cnc(C3CC3)o2)cc1S(=O)(=O)Nc1cccc(C)c1C,1.07%
5,CC(C)(C)OC(=O)N1CCC(c2c(C(=O)N3CCN(c4ccccn4)CC3)cnn2-c2ccc(F)cc2F)CC1,-6.09%
6,Cc1ccc2c(c1)-c1nc(-c3ccc4c(c3)NC(=O)CO4)cc(-c3ccccc3)c1CO2,5.75%
7,CC(=O)N1CCC(N(Cc2ccc(C)o2)C(=O)Nc2cccc(C(F)(F)F)c2)CC1,-13.8%
8,Cc1ccc(C)c(NC(=O)CN2C(=O)CCc3cc(S(=O)(=O)N4CCCCC4)ccc32)c1,4.08%
9,COc1ccccc1NC(=O)Cn1c(C)cc(C)c(C#N)c1=O,-15.9%
10,CC(=O)N1CCc2c(sc3c2c(=O)n(-c2ccccc2)c(=O)n3CC(=O)c2ccccc2)C1,-3%
11,O=C(NC1CCN(Cc2ccccc2)CC1)c1ccc(Cn2c(=O)c3ccccc3n(Cc3ccc(Cl)cc3)c2=O)cc1,1.61%
12,COc1ccc(NC(=O)Nc2cc(-c3cn4cccnc4n3)ccc2C)cc1,-4.36%
13,CC(=O)N1CCc2cc(S(=O)(=O)NC(Cc3ccccc3)C(=O)NCc3ccccc3)ccc21 (stereo unspecified),4.89%
14,COCc1nc2ccccc2n1Cc1ccc(C(C)(C)C)cc1,-14.8%
15,CC(=O)Nc1ccc(NC(=O)c2ccc3c(c2)N(Cc2cccc(Cl)c2)C(=O)c2ccccc2S3=O)cc1 (stereo unspecified),-19.3%
16,Cc1ccc(Cn2c(=O)n(Cc3ccccc3)c(=O)c3oc4ccccc4c32)cc1,-0.502%
17,Cc1cccc(C(=O)Nc2cc3c(cc2C)n(C)c(=O)n3C)c1,-13.5%
18,CCC(=O)N1CCc2cc(Br)cc(S(=O)(=O)NCCc3cccc(C)c3)c21,-20.2%
19,O=C(Nc1sc2c(c1C(=O)NCc1ccco1)CCCC2)c1cc(=O)c2cc(Cl)ccc2o1,16.7%
20,O=C1C(c2ccc(F)cc2)N(CCc2ccc(Cl)cc2)C(=O)CN1C1CCCCC1 (stereo unspecified),12.4%
21,CCc1ccc(S(=O)(=O)Nc2cccc(-c3ccc(N4CCCCC4)nn3)c2)s1,14.3%

row,SMILES,inhibition
1,Cc1nnc(N2CCN(C(=O)NCCC(C)C)CC2)c2nn(-c3ccc(Cl)cc3)c(C)c12,1.57%
2,CCOc1cc(C(=O)Nc2cc3c(cc2N2CCCC2)n(C)c(=O)c(=O)n3C)cc(OCC)c1OCC,20.9%
3,Cc1cc(C)c2nc(C)cc(Nc3cccc(C(=O)O)c3)c2c1,3.07%
4,O=S(=O)(c1ccc(Cl)cc1)c1nc(-c2cccs2)oc1N1CCCCC1,7.11%
5,CCc1cc2c(cc3c(=O)n(CC(=O)NC(C)c4ccccc4)ncn32)s1 (stereo unspecified),-6.55%
6,COc1ccccc1CNC(=O)Cc1csc2nc(-c3ccc(F)cc3)cn12,-25.7%
7,Cc1cc(C)nc(-n2nc(C)c3c2N(Cc2ccccc2F)C(=O)CC3c2ccc(Cl)cc2)n1 (stereo unspecified),14.7%
8,COc1cccc(NC(=O)CCN2C(=O)c3ccccc3Sc3ncccc32)c1,-1.28%
9,CCc1ccccc1NC(=O)C1CCN(S(=O)(=O)c2cn(C)cn2)CC1,7.1%
10,CCOC(=O)c1sc2ccccc2c1S(=O)(=O)NCc1ccccc1OC,3.86%
11,Cc1cccc(OCc2nc(CC(=O)Nc3ccc(Cl)cc3)cs2)c1,-16.7%
12,CCC1CN(C(=O)N2CCC(C(=O)NCCc3ccc(OC)cc3OC)CC2)c2cc(C)ccc2O1 (stereo unspecified),10.3%
13,Cc1cccc(C)c1-n1ncc(C(=O)NCCCN2CCC(C)CC2)c1C1CCN(C(=O)OC(C)(C)C)CC1,-0.548%
14,Cc1cc(Nc2ccc(Br)cc2)nc(C)n1,-0.248%
15,CCOC(=O)c1cnc2c(ccc3ccccc32)c1Nc1ccc(C(C)=O)cc1,-11%
16,COc1cccc(CSc2nc3ccncc3n2CC(=O)Nc2ccc(OC)c(OC)c2OC)c1,-19.1%
17,O=C1Cc2cc(S(=O)(=O)N3CCN(c4cccc(Cl)c4)CC3)ccc2N1,-1.48%
18,CCn1c(C(=O)NCCc2ccc(S(N)(=O)=O)cc2)cc2sc(Cl)cc21,-7.15%
19,CC(=O)N1CCCc2ccc(NS(=O)(=O)c3cccc(Cl)c3)cc21,-17.1%
